Reference: PubChem BioAssay AID1963576 (National Center for Advancing Translational Sciences (NCATS), 2024)
Hit rate of the full screen: of about 46,000 compounds, about 60 (0.1%) were called active. Inconclusive results (about 3%) are left out. Calls follow the shape of the dose curve; as a rule, active = well fitted inhibition curve with a large enough effect; inconclusive = small, poorly fitted or top-dose-only effect; inactive = no such curve, though single readings can be large or run the other way. Some of the results follow.

Experiment: Primary qHTS assay for Inhibitors of ovarian cancer metastasis using an organotypic tumor microenvironment (TME) model. Also: nearly all actives have a fitted effect of over 65% in size.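 As to activity change, negative = inhibition: plate controls were DMSO wells for no effect and tomatine positive control wells for full effect.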
Details: SKOV3ip1-GFP adhesion/invasion on 3D omental model, fluorescence; series mostly up to 45.8 µM; activity change, negative = inhibition: at the top concentration
Summary of the method: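 A 3D layer of primary human omental fibroblasts, mesothelial cells, fibronectin and collagen I, grown 48 hr, received SKOV3ip1-GFP cells in serum-free medium plus compounds at 0.36-46 umol/L. After 2 hr RT and 16 hr 37 C, fixed adherent GFP cells were counted; normalized to DMSO and tomatine.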

Activity change, negative = inhibition, inactive:
CC(C)N(CC[C@H](c1ccccc1)c1cc(CO)ccc1O)C(C)C 17.2%, Cc1ccc2c(c1)CC(C)N2S(=O)(=O)c1nnc(NC(=O)C(C)C)s1 (centres undefined) 1.03%, COc1ccc(NC(=O)Cn2cc(C(=O)C3CCCCC3)c3ccccc32)cc1 -11.8%, Cc1c(Cl)cccc1NC(=O)C(=O)NCC(c1cccnc1)N1CCN(c2ccccc2)CC1 (centres undefined) 30.1%, CCOc1ccc(CCNC(=O)c2sc3ncccc3c2-n2c(C)ccc2C)cc1 2.17%, COc1ccc(OC)c(NC(=O)N2CCC(N3CCN(Cc4ccc(F)cc4)C(=O)C3=O)CC2)c1 0.987%, COC(=O)c1c(NC(=O)c2cc3nc(-c4ccc(Br)cc4)cc(C(F)(F)F)n3n2)sc2c1CCCC2 -6.87%, CC(NC(=O)c1ccc2nc(Cc3ccccc3)oc2c1)c1ccccc1 (centres undefined) -0.919%, Cc1cc(=O)n(CC(=O)Nc2cccc([N+](=O)[O-])c2)c(-n2nc(C)cc2C)n1 3.85%, O=C(Nc1ccccc1OCc1cc(=O)n2ccccc2n1)c1ccccc1F 29.7%, CCCn1c2ccccc2c2cnn(CC(=O)NCc3cc(OC)ccc3OC)c(=O)c21 0.392%, COc1ccc(CNC(=O)CN2C(=O)CSc3ccc(S(=O)(=O)N4CCCC4)cc32)cc1 12.5%, CCCCNC(=O)CN1C(=O)COc2ccc(S(=O)(=O)N3CCCC3)cc21 -1.23%, CCc1ccccc1NC(=O)C(C)n1nc(-c2ccc(C)c(C)c2)ccc1=O (centres undefined) -0.0065%, O=C(C1CCN(S(=O)(=O)Cc2ccccc2)CC1)N1CCN(c2ccccc2F)CC1 4.1%, Cc1cccc(Cn2cc(C(=O)Nc3ccc(S(N)(=O)=O)cc3)ccc2=O)c1 -15.7%, COc1ccc(Cl)cc1NC(=O)N1CCC(CN2CCCCCC2)CC1 -7.93%, Cc1ccc(C)c(Nc2nc3nonc3nc2Nc2cccc(C)c2C)c1 -32.6%, CCOC(=O)c1cccc(NC(=O)C(Cc2ccccc2)NS(=O)(=O)c2cccc3nsnc23)c1 (centres undefined) 0.325%, COc1ccc(CNC(=O)C(=O)NCC(c2ccco2)S(=O)(=O)c2ccc(C)cc2)cc1 (centres undefined) -0.582%, COc1cc2nc(Nc3ccc(F)cc3)nc(N)c2cc1OC -35.5%, COC(=O)c1ccc(Cn2nnc3sc4c(c3c2=O)CCCC4)cc1 4.05%, CCn1nc(C)c2c(-c3ccccc3)cc(=O)n(C(C)C(=O)NCc3ccc(C)cc3)c21 (centres undefined) -6.12%, CC(=O)c1ccc(NC(=O)c2nc3ccccc3n(C)c2=O)cc1 -25.5%, O=C(CSC1=Nc2ccccc2N=C(c2ccc(F)cc2)C1)NCc1ccc(Cl)cc1 -5.51%, CCN(CC)c1ccc(NC(=O)c2cc3c(=O)n4cccc(C)c4nc3n2C)c(C)c1 -8.65%, CN(C)S(=O)(=O)c1ccc2c(c1)C(=Cc1cc3c([nH]1)CCCC3)C(=O)N2 25.9%, Cc1[nH]c(=O)[nH]c(=O)c1S(=O)(=O)N1CCN(c2cccc(Cl)c2)CC1 -3.49%, COc1ccc(/C=C/c2nc3ccccc3c(=O)n2-c2cccc(C(F)(F)F)c2)cc1 -3.4%, CCN(c1ccccc1)S(=O)(=O)c1ccc2[nH]cc(C(=O)NCc3ccc(C)cc3)c(=O)c2c1 -6.72%, N#Cc1c(Nc2cccc(F)c2)sc(C(=O)c2ccc(Cl)cc2)c1N 3.49%, O=C(Nc1cccc(C(F)(F)F)c1)Nc1nnc(N2CCCCC2)s1 1.62%, COc1ccc(S(=O)(=O)Nc2cccc(-c3ccc(N4CCCC4)nn3)c2)cc1OC -0.664%, CCCNC(=O)Cn1nc(-c2ccc(C)c(C)c2)c2cnc3ccc(F)cc3c21 2.3%, Cc1ccc(C)c(CN2C(=O)CSc3ccc(C(=O)NCCc4ccc(Cl)cc4)cc32)c1 9.65%, Cc1ccc(OCC(=O)Nc2ccc3nc(Nc4cccc(Cl)c4)cc(C)c3c2)cc1 11.2%, COc1ccccc1CNC(=O)CN1C(=O)CCn2nc(-c3ccccc3)cc21 1.93%, COc1ccc(N2CC(NC(=O)c3ccc(OC(C)C)cc3)CC2=O)cc1 (centres undefined) -1.12%, O=C(c1ccccc1)n1nc(-c2ccco2)nc1NCc1ccccc1Cl -1.39%, COc1ccc(N(C(=O)COc2ccccc2OC)S(=O)(=O)c2ccc(Cl)cc2)cc1 -8.46%, CO[C@H]1C=CO[C@@]2(C)Oc3c(C)c(O)c4c(O)c(c(C=NN5CCN(C)CC5)c(O)c4c3C2=O)NC(=O)C(C)=CC=C[C@H](C)[C@H](O)[C@@H](C)[C@@H](O)[C@@H](C)[C@H](OC(C)=O)[C@H]1C -5.82% [at 15.1 µM], COc1cccc(-n2cc(C(=O)Nc3cc(C)c(Cl)cc3OC)c3ccccc3c2=O)c1 -7.38%, CCOc1ccc(CCNC(=O)C2CCC(CNS(=O)(=O)c3ccc(Cl)cc3)CC2)cc1OCC (centres undefined) -24.6%, CCOc1ccc2nc(N3CCCC(C(=O)NCc4ccccc4OC)C3)sc2c1 (centres undefined) -0.661%, CCCn1c2ccccc2c2cnn(CC(=O)NCCc3ccc(C)cc3)c(=O)c21 -30%, CCOC(=O)c1ccc(NC(=O)c2nc(SCc3ccccc3F)ncc2Cl)cc1 -2.92%, O=C(NC1CC(=O)N(c2ccc(Cl)cc2)C1)c1ccc(S(=O)(=O)N2CCOCC2)cc1 (centres undefined) -13.7%, COc1ccc(-c2noc(CN(C(=O)c3cc(OC)c(OC)cc3OC)C(C)C)n2)cc1 -20.6%, CCCCOC(=O)c1ccc(Nc2nnc(-n3nc(C)cc3C)c3ccccc23)cc1 -7.31%, Cc1cc(C)c2oc(C(=O)Nc3ccc(S(=O)(=O)Nc4nccc(C)n4)cc3)cc(=O)c2c1 -2.22%, COc1ccc(Nc2oc(/C=C/c3ccc(OC)c(OC)c3)nc2C#N)cc1 -2.16%, Cc1ccc(CN2CCCn3nc(C(=O)NCC(C)c4ccccc4)cc3C2=O)cc1 (centres undefined) 13.3%, CCc1nn(CC(=O)NCCCOC)c(=O)c2cc3ccccc3n12 -24.3%, Cc1ccc(/C=C/c2onc(C)c2S(=O)(=O)N2CCC(C(=O)Nc3cc(F)ccc3F)CC2)cc1 14.4%, Cc1nc(C(=O)NCC(=O)O)c(O)c2ccc(Oc3ccccc3)cc12 4.25%, O=c1c2sc3ccccc3c2n(Cc2cccc(C(F)(F)F)c2)c(=O)n1Cc1ccc(F)cc1 32.6%, Cc1cccc(C)c1Nc1c(-c2ccc(O)cc2)nc2sccn12 -5.33%, COc1ccc2oc(-c3cccc(NC(=O)c4sc5c([N+](=O)[O-])cccc5c4Cl)c3)nc2c1 -6.11%, CCCn1c(CCC(=O)Nc2ccccc2OC)nc2cccnc21 7.87%, CCOc1ccc(S(=O)(=O)NCCc2sc3nc(-c4ccc(C)cc4)nn3c2C)cc1 8.34%, Cc1cc(C)cc(-n2ccn(Cc3ccc(F)cc3)c(=O)c2=O)c1 -2.3%, Cc1ccc(-c2cn(-c3ccc(Cl)cc3)c(S(=O)(=O)CC(=O)Nc3ccccc3)n2)cc1 -4.36%, COc1ccc(NC(=O)CC2C(=O)N(c3cccc(OC)c3)C(=O)N2Cc2ccc3c(c2)OCO3)cc1 (centres undefined) 1.88%, O=C(CC1N=C2c3ccccc3N=C(SCC(=O)Nc3ccccc3F)N2C1=O)NCc1cccs1 (centres undefined) 19.1%, Cc1ccc(CNC(=O)CCCN2C(=O)COc3ccc(C)cc32)cc1 -3.8%, Fc1ccc(Br)cc1C1C=C(c2ccc(Br)cc2)Nc2nnnn21 (centres undefined) 2.33%, CC1CCc2c(sc(NC(=O)c3cc(-c4ccc(F)cc4)on3)c2C(N)=O)C1 (centres undefined) 1.88%, Cc1ccc2sc(N(Cc3cccnc3)C(=O)C3COc4ccccc4O3)nc2c1C (centres undefined) 18.4%, Cc1ccc(NC(=O)c2c(NC(=O)c3ccccc3)sc3c2CCC3)cc1 1.59%, CCN(CC)CCNC(=O)c1ccc(-n2c(-c3ccccc3)cc3c2CCCC3)cc1 -7.89%

outcome, inactive:
CCc1noc(-c2ccc(N(C)Cc3ccc(OC)cc3)c([N+](=O)[O-])c2)n1, CCc1ccc(Nc2cc(C(=O)NCCCN(C)c3ccccc3)c3ccccc3n2)cc1, COc1ccc(-c2cc(C(F)(F)F)nc(SCCC(=O)Nc3cccc(O)c3)n2)cc1, CSc1cccc(NC(=O)Cn2cnc(S(=O)(=O)N3CCCC3)c2)c1, CC1=C(C(=O)OCC2CCCCC2)C(c2ccc(Cl)cc2Cl)CC(=O)N1 (centres undefined), CCc1ccccc1OCCSc1nnc(-c2cc(OC)c(OC)c(OC)c2)o1, Cc1cc(S(=O)(=O)NCC(c2ccc(N(C)C)cc2)N2CCOCC2)ccc1F (centres undefined), Cc1ccc(CN(C(=O)COc2ccc(Cl)cc2Cl)C2CCS(=O)(=O)C2)o1 (centres undefined), Clc1ccc(CNc2cc(-c3ccccc3)nc3nncn23)cc1, COc1ccc(-c2nc3sc(CCNS(=O)(=O)c4ccc(F)c(C)c4)c(C)n3n2)cc1, Cc1c(-c2ccc(Cl)cc2)c(=O)oc2c(CN3CCCC3)c(O)ccc12, Cc1noc(C)c1S(=O)(=O)N1CCCC(C(=O)Nc2ccc(C(C)C)cc2)C1 (centres undefined), CCOc1ccc(CNC(=O)C2CCN(c3nn4c(=O)cc(C)nc4s3)CC2)cc1, CCOCCCNC(=O)c1cc2c(=O)[nH]c3ccccc3c2n1C, Cc1ccc(Cl)cc1NC(=O)C1CCN(c2nc3ccccc3n3cccc23)CC1, COc1ccc(-c2noc(CSc3nc(N)cc(=O)[nH]3)n2)cc1OC, COc1cc(C2C(C(=O)Nc3ccccc3)=C(C)Nc3nnnn32)cc(OC)c1OC (centres undefined), COCCn1c(=O)[nH]c2cc(C(=O)Nc3cccc(C(C)=O)c3)ccc2c1=O, CCOc1ccc(S(=O)(=O)Nc2cc(Cl)ccc2OC)c2cccnc12, O=c1oc2ccccc2cc1-c1cn2cc(Cc3ccc(Br)cc3)sc2n1, Cc1cc(C)cc(NC(=O)C2CCN(S(=O)(=O)c3cccc(-c4noc(C)n4)c3)CC2)c1, COc1ccc(S(=O)(=O)c2nnn(-c3ccc(C)c(Cl)c3)c2C)cc1, Cc1cccc(NC(=O)C(=O)NCCc2csc(-c3ccc(C(F)(F)F)cc3)n2)c1C, CC1=Nc2cc(C(=O)NC(C)C)ccc2Sc2ccc(C)cc21
